Measurements as given in the supplement of paper PMC11417369.
This is one part of the list.

test system: PfSIP2 AP2 domain 1 (GST-tagged); experiment: gcPBM binding intensity (ln(normalized median fluorescence intensity)); higher = stronger DNA binding
Procedure, shortened: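 The binding buffer was 1× PBS containing 1% milk, 0.2 mg/ml BSA, 0.5% salmon testes DNA and 0.03% Triton X-100. In it, GST-tagged P. falciparum DNA-binding domains expressed in E. coli were applied for 1 h to an Agilent 4 × 180k array of primer-extended double-stranded 36-bp intergenic genomic probes plus negative controls. Binding intensity, read with Alexa488 anti-GST antibody and a 488 nm scan, is the highest Masliner-normalised natural-log median intensity across replicate spots of either probe orientation.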

Row | Sequence | gcPBM binding intensity (ln)
1 | TTTTTTTTTTTTTTTTGTACATAATAAATGTTCTTA [XGTACX_site6754] | 6.95
2 | TGTATCTATAATAAAACACACATTTTTAATGTGCTC [CACACA_site6788] | 6.78
3 | AATATATGTATATCCACACACATATATATATATATA [CACACA_site1633] | 9.32
4 | TATTTTGTATTCATTTGTCACATATAATAGATAGGA [TGCATGCA_negctrl_site9] | 7.14
5 | ATAGATATAACATATGCATGTAAAATATAACCACTC [TGCATGCA_site60] | 7.22
6 | TGTGCGGAAATAAGTGCACACATAGATATATGTATT [CACACA_site9227] | 10.8
7 | AATAAATAGAAAGAGGTGCTACATTATATTATTTAT | 8
8 | TTATACGAAGTACGTACACACACTTATATGTTACTA [CACACA_site4019] | 7.37
9 | ATATATTATATGTACACACACATATAAGGGATTATA [CACACA_site5] | 7.27
10 | TATAAATATATATATACACACACATACACAAAAAAA [CACACA_site9191] | 7.33
11 | AAAAATATGAAGACACAATATAGAAATAAAAATATA [XGTACX_negctrl_site244] | 6.82
12 | TATTACTTGATATATACACACATATAACATAAATGC [CACACA_site7783] | 6.99
13 | TAGAATAAACCAAGAAGTACTGTTTAATGAAAAGTA [XGTACX_site5712] | 6.92
14 | ATACCTAAAAAATATACACACATATTTATAAATATA [CACACA_site7260] | 7.05
15 | AAAATAACATAAAAGAGTACTAAACCAAGATCAAAT [XGTACX_site7973] | 7.13
16 | TATATTTATATTCTTACATTTTTTATGTTTTTTTTT [CACACA_negctrl_site1017] | 6.76
17 | TAAACAGACATATAAACACACATATAAACCGACATA [CACACA_site2478] | 6.88
18 | GTCATATTATTCTTTTCACACACGCGTTAATAATAA [CACACA_site9302] | 7.96
19 | TATTATAATATGTAGCGTACATTTTTTCTTTCTTTT [XGTACX_site7831] | 6.68
20 | AAGGTTATATAAAAAAGTACGCATAAGATGTTGTTC [XGTACX_site807] | 7.18
21 | TACTGTATTATAATTATGATTGACGAAATTAAAAAT [GTGCAC_negctrl_site358] | 6.91
22 | ATTAGAAAAAAGATAGCACACACGGCCCAATATATA [CACACA_site2417] | 6.7

Row | Sequence | gcPBM binding intensity (ln)
23 | TGAAATTTATAATAGTGTACAAAGAAAAAAAAAAAA [XGTACX_site4965] | 7.03
24 | TTTATGGATGTGTATGCATGCCTAAATAAATATATG [TGCATGCA_site916] | 7.1
25 | ACGACATATGGATGATGTACTATCTTTATTATACAT [XGTACX_site6857] | 6.89
26 | TCTCAAAAAAAAAAAAAAAAAAAAAAATTAAAAAAT [CACACA_negctrl_site1120] | 6.77
27 | TAAATAATGTAAAAAACATCATCAAAATGTTAATTA [CACACA_negctrl_site1768] | 6.62
28 | CAATATAAAATAAAATGTACTTGTAGTAAAGGGATA [XGTACX_site1452] | 7.47
29 | ATAAAGGTTTTCCAAGCATGCCACATAGTGACATAC [TGCATGCA_site193] | 6.82
30 | GATGAGGACAAACACACACACATAAGTTGATACATA [CACACA_site3424] | 7.27
31 | AGATAGATACATACACGTACATATATATATACACAT [XGTACX_site4755] | 7.47
32 | GGTATAAAGAAATTTTGTACATATTTCTCCCTTTAA [XGTACX_site1874] | 7
33 | TAATATATAAGAAACAAAAAAAAATAAAAATATATA [TGCATGCA_negctrl_site153] | 6.81
34 | TAAAATAATTCGTAACGTACATATGTAATATAATAT [XGTACX_site6126] | 7.33
35 | CGCATACACGGACACACACACACATATATATATATA [CACACA_site4520] | 9.28
36 | AAAAAAAAAAAACACACACACACACTAATATATAAA [CACACA_site8302] | 7.12
37 | TAAATATATATCATCACACACACATACATAAATATA [CACACA_site183] | 7.09
38 | AGCTCTATATTTTACACATGCGATTTGGATATATAT [TGCATGCA_site105] | 7.11
39 | CCTTTATATTATAAAAGTACATAATATTTTATAAGT [XGTACX_site1629] | 7.08
40 | ATATTACAACGTAACGAATATTTCATAAATTCTTAA [CACACA_negctrl_site770] | 6.61
41 | ATTTCTCAATCGTAATGTACAAAAAAAAGGAAAAAA [XGTACX_site1193] | 7.09
42 | TTATATAGATGGAATAGTACAGTATATATATATATA [XGTACX_site8755] | 9.2
43 | ATATTATTAATATATTGTACTTTTTTTTTTTTATTT [XGTACX_site496] | 6.96
44 | ATATGTATTTAATTCACACAAAAATATGTTCATGAA [CACACA_site5223] | 7.13

Row | Sequence | gcPBM binding intensity (ln)
45 | CACATTATGTATCATACACACAAATAAATATATAAT [CACACA_site4505] | 7.12
46 | TGAAAATAATTATAGGTGCATAAACATACGGATCTT | 9.89
47 | TTTTTTTTGTATTTTTCACACACTCTCTATCTCTCT [CACACA_site8655] | 6.85
48 | TATAAAAATAATATTACACACATGTAAAATGCCCGT [CACACA_site7522] | 6.83
49 | ATATATTAATAATAAATTAAAAGGAGTAACATTTTC [CACACA_negctrl_site320] | 6.96
50 | AATTTAATTATGGTAACACACAATAAAAAAAAATCT [CACACA_site568] | 6.94
51 | TTTTTTTTTTTCTTTGCACACAGATAACTTGAAATT [CACACA_site2184] | 7.2
52 | ATATTTTATTTTCCATGTACACAAAAAAAAAAAAAA [XGTACX_site8327] | 7.53
53 | AAGAAAATAAAGGATATGAAAAATAAAAAAAAGGAG [TGCATGCA_negctrl_site265] | 8.02
54 | AGGTTAAAAATAAATACACACATTTTATGGGTGTAT [CACACA_site4702] | 6.76
55 | TTCTCACTTTTAAATTTTATTCAAAAATAAGGAAAG [XGTACX_negctrl_site444] | 7.22
56 | GAGAGTAAAACAAATATACACACCATAAAGTTATAA [CACACA_site1686] | 6.87
57 | ATATATATATATAAATGTACATATGTATAATTCATA [XGTACX_site6679] | 8.9
58 | ATTTCGTTCTTTTATGCACACTCAACATATAAATTA [CACACA_site8322] | 8.1
59 | TATTTTTCCATATGCACACACACCGTATCTAGAATA [CACACA_site6654] | 7.67
60 | TACATAAACATTTATACACACATTATGTATACATAT [CACACA_site405] | 7.13
61 | GGATTTTTCGAATCATGTACATATTTAATTAAAAAA [XGTACX_site7939] | 6.9
62 | TAGAATGTATGTAGTGCACACCTCTATAATATATTA [CACACA_site1873] | 10.7
63 | AACTTTGGCAAACACACACACACACCCACACCCACA [CACACA_site588] | 6.9
64 | TTTTTTTTTTGCACGTGTACATAAAAATATATATAT [XGTACX_site3116] | 8.08
65 | AAAATATATTCAACTTGTACATATATATATATATAT [XGTACX_site7629] | 9.65
66 | TTTTTGTAATGACACACACACAAACAGAAAAAATAA [CACACA_site7062] | 7.19

Row | Sequence | gcPBM binding intensity (ln)
67 | TTATATATTTTGATTGCACACAGAATTTAAATCATG [CACACA_site8735] | 7.26
68 | ATATATGTGCTAAAATGTACATAGTATAATATATTT [XGTACX_site1949] | 7.05
69 | TTTAATCATTTTAGCTTACACACAAAATTTTGTTAT [CACACA_site2938] | 7.01
70 | ATAAAATAAAGGAAAAATATTAAGTTTTAAGAAAAT [CACACA_negctrl_site1066] | 6.68
71 | ATATTTAAGATTTAATCACACACATATATATTATAT [CACACA_site8946] | 7.14
72 | TAGATACATAAAAGTGGTACATATATATATATATAT [XGTACX_site6263] | 9.44
73 | AATATTTATATTTACACACACATAATACCTATATGT [CACACA_site6167] | 7.02
74 | TGGAAATTCTCAGGAGTGCATATTTGCAGTTTACGT [GTGCAC_site9768] | 9.28
75 | ATGGTTAAAAAAAGCATACACACTATCCTCTTTGCT [CACACA_site2552] | 6.84
76 | TTTGTTGACGGACACACACACATACAGATATATATA [CACACA_site5292] | 7.32
77 | ATAATAAATTATTATGTACACACATAATAGTATATA [CACACA_site8538] | 6.98
78 | CCGTTGAACATATATGCACACACATAAAATAAAAAA [CACACA_site8761] | 7.65
79 | ATATTTTTTTTTTTTTGTACATATATCATTATATAT [XGTACX_site866] | 7.13
80 | TTTTTGTCTGCATACGCACACACGTGTACCATCTTA [CACACA_site1173] | 7.19
81 | TGGTTACTGTCATTAGTTATTTCTTGTTGACAATTA [CACACA_negctrl_site416] | 6.81
82 | AAAAAATCACAACACACACACACACTAATAAAAAAA [CACACA_site8410] | 7.05
83 | AAATCACATAAAACATAATCAAATGAAATATAATCA [CACACA_negctrl_site123] | 6.62
84 | TAAATATTATTATATACATGCACTTACAACTTTTTT [TGCATGCA_site877] | 8.6
85 | ACTGTAAATTTATTCGGTACACATATAAATAATATT [XGTACX_site7346] | 7.41
86 | ATTATTTTTAAAAATTGTACAGTATAAGAGAGAAAT [XGTACX_site7094] | 7.65
87 | TATTGTAAAAAGATTACACACGTTCTATATACTTTT [CACACA_site5379] | 6.86
88 | AATAAAAAAATATATTGTACTAATAATTATATGTTT [XGTACX_site2246] | 6.98
